# Laboratory results from patent US11457629B2, “Heteroarylphenylaminoquinolines and analogues” (Bayer Aktiengesellschaft, priority 2017, dated 2022).
# Marks after values point to notes of the source that are not given here.
# Procedure: In the following, measurement of Log P values was performed according to EEC directive 79/831 Annex V.A8 by HPLC (High Performance Liquid Chromatography) on reversed phase columns with the following methods: • ^[a]
# If more than one Log P value is available within the same method, all the values are given and separated by “+”.
# Calibration was done with straight-chain alkan2-ones (with 3 to 16 carbon atoms) with known Log P values (measurement of Log P values using retention times with linear interpolation between successive alkanones). Lambda-max-values were determined using UV-spectra from 200 nm to 400 nm and the peak values of the chromatographic signals.
logP,Log P,Compound
2.74 ^[a],,Cn1nccc1-c1c(Nc2cnc3c(F)cccc3c2)ccc(F)c1F [Example I-236]
,3.06 ^[a],CC(C)n1nccc1-c1ccccc1Cc1cnc2ccccc2n1 [Example I-356]
3.24 ^[a],,Cc1ccc(Nc2cnc3ccccc3c2Cl)c(-c2ccnn2C)c1 [Example I-212]
3.01 ^[a],,Cn1ccc(-c2c(F)cccc2Nc2cnc3ccccc3c2)n1 [Example I-025]
2.56 ^[a],,Cc1nc2ccccc2nc1Nc1ccc(F)cc1-c1ccnn1C [Example I-185]
,2.86 ^[a],CCn1nccc1-c1ccccc1Cc1cnc2c(F)cccc2c1 [Example I-354]
,3.17 ^[a],CCn1nccc1-c1c(F)ccc(F)c1Nc1cnc2ccccc2c1Cl [Example I-315]
3.73 ^[a],,Cc1nc2c(F)cccc2cc1Nc1ccccc1C1=NOCC1C (racemic) [Example I-057]
2.84 ^[b],,CC1=NOC(c2c(F)cccc2Nc2cnc3ccccc3c2)C1 (racemic) [Example I-034]
,3.72 ^[a],Cc1nc2c(F)c(F)ccc2cc1Nc1ccc(F)cc1-c1c(C(F)(F)F)cnn1C [Example I-308]
3.33 ^[a],,CCn1nccc1-c1c(F)cccc1Nc1nc2ccccc2nc1C [Example I-091]
,2.49 ^[a],CCn1nccc1-c1c(Nc2c[nH]c3c(F)c(F)ccc3c2=O)ccc(F)c1F [Example I-269]
3.02 ^[a],,Cc1cnn(C)c1-c1c(F)cccc1Nc1nc2ccccc2nc1C [Example I-192]
3.27 ^[a],,CCn1nccc1-c1cc(F)ccc1Nc1cnc2ccccc2c1Cl [Example I-169]
3.61 ^[a],,Cc1nc2c(F)c(F)ccc2cc1Nc1ccc(OC(F)(F)F)cc1-c1ccnn1C [Example I-233]
,3.23 ^[a],Cc1cnn(C)c1-c1c(F)cccc1Nc1cc2ccc(F)c(F)c2nc1C [Example I-287]
,3.11 ^[a],Cc1cc(-c2cc(F)ccc2Nc2cc3ccc(F)c(F)c3nc2C)n(C)n1 [Example I-298]
2.40 ^[a],,Cc1ccc(Nc2cnc3ccccc3c2C)c(-c2c(C)cnn2C)c1F [Example I-198]
2.75 ^[b],,CC1=NOC(c2ccccc2Nc2cc3ccccc3nc2C)C1 (centres unmarked) [Example I-012]
,3.08 ^[a],Cn1nccc1-c1c(F)cccc1Nc1cnc2c(F)c(F)ccc2c1F [Example I-275]
3.02 ^[b],,CC1=NOC(C)(c2ccccc2Nc2cnc3c(F)cccc3c2)C1 (centres unmarked) [Example I-020]

logP,Log P,Compound
3.33 ^[a],,CCn1nccc1-c1c(Nc2nc3ccccc3nc2C)ccc(F)c1F [Example I-247]
,3.25 ^[a],CCn1nccc1-c1c(F)c(F)cc(F)c1Nc1cnc2ccccc2c1Cl [Example I-317]
2.55 ^[a],,Cn1nccc1-c1ccccc1Nc1cnc2c(F)cccc2c1 [Example I-162]
,3.11 ^[a],CCn1nccc1-c1ccccc1Cc1cnc2c(F)c(F)ccc2c1 [Example I-343]
,3.76 ^[a],Cc1nc2c(F)c(F)ccc2cc1Nc1cccc(F)c1-c1c(C(F)(F)F)cnn1C [Example I-282]
3.11 ^[a],,Cc1ccc(F)c(-c2ccnn2C)c1Nc1cc2ccc(F)c(F)c2nc1C [Example I-109]
3.48 ^[a],,CCn1nccc1-c1c(F)cccc1Nc1cnc2ccccc2c1Cl [Example I-089]
,3.87 ^[a],CCn1nccc1-c1cc(Cl)ccc1Cc1cc2ccc(F)c(F)c2nc1C [Example I-351]
3.31 ^[a],,Cc1nc2ccccc2nc1Nc1ccc(Cl)cc1-c1ccnn1C [Example I-224]
3.30 ^[a],,CC(C)n1nccc1-c1ccccc1Nc1cnc2c(F)c(F)ccc2c1 [Example I-127]
,2.00 ^[a],Cn1nccc1-c1c(F)ccc(F)c1Nc1c[nH]c2c(F)c(F)ccc2c1=O [Example I-272]
3.39 ^[a],,CCn1nccc1-c1c(Nc2cc3ccc(F)c(F)c3nc2C)ccc(F)c1F [Example I-243]
3.00 ^[a],,Cc1nc2c(F)c(F)ccc2nc1Nc1ccc(F)cc1-c1ccnn1C [Example I-181]
2.62 ^[a],,Cc1ccc(Nc2cnc3c(C)cccc3c2)c(-c2ccnn2C)c1 [Example I-215]
4.20 ^[a],,Cc1nc2c(F)c(F)ccc2cc1Nc1ccc(F)cc1-c1ccnn1CCc1ccccc1 [Example I-145]
,4.13 ^[a],Cc1nc2c(F)c(F)ccc2cc1Cc1ccccc1-c1ccnn1Cc1ccccc1 [Example I-288]
3.02 ^[a],,Fc1ccc(Nc2cnc3ccnn3c2)c(-c2ccnn2CCc2ccccc2)c1 [Example I-141]
3.09 ^[a],,Fc1cccc(Nc2cnc3ccnn3c2)c1-c1ccnn1CCc1ccccc1 [Example I-123]
2.82 ^[a],,Cn1nccc1-c1cc(F)ccc1Nc1cnc2c(F)c(F)ccc2n1 [Example I-189]
1.82 ^[a],,Cc1nn(C)cc1-c1ccccc1Cc1cnc2ccccc2c1 [Example I-068]
,2.23 ^[a],Cn1nccc1-c1c(Nc2c[nH]c3c(F)c(F)ccc3c2=O)ccc(F)c1F [Example I-274]

logP,Log P,Compound
3.44 ^[a],,CCn1nccc1-c1c(F)cccc1Nc1cnc2c(F)c(F)ccc2n1 [Example I-093]
,1.73 ^[a],Cc1nc2ccccc2cc1Cc1ccccc1-c1ccnn1C(C)C [Example I-347]
,3.48 ^[a],Cn1nccc1-c1ccccc1Cc1cnc2c(C(F)(F)F)cccc2c1 [Example I-337]
3.75 ^[a],,CC1(C)CC(c2c(F)cccc2Nc2cnc3ccccc3c2)=NO1 [Example I-056]
,1.53 ^[a],CCn1nccc1-c1ccccc1Cc1cc2ccccc2nc1C [Example I-349]
,3.76 ^[a],CCCn1nccc1-c1c(F)cccc1Nc1cc2ccc(F)c(F)c2nc1C [Example I-324]
3.35 ^[a],,Cc1ccc(Nc2nc3ccc(F)c(F)c3nc2C)c(-c2ccnn2C)c1 [Example I-213]
,3.46 ^[a],Cc1nc2c(F)c(F)ccc2cc1Nc1cccc(F)c1-c1c(Cl)cnn1C [Example I-304]
3.27 ^[a],,CCn1nccc1-c1cc(F)ccc1Nc1cc2ccc(F)c(F)c2nc1C [Example I-144]
1.69 ^[a],,Cc1c(Nc2ccccc2-c2ccnn2C)cnc2ccccc12 [Example I-156]
3.01 ^[a],,CC(C)n1nccc1-c1ccccc1Nc1cnc2c(F)cccc2c1 [Example I-128]
2.92 ^[a],,CC(C)c1ccnn1-c1ccccc1Nc1cnc2ccccc2c1 [Example I-070]
3.74 ^[a],,Cc1cc(C)c(Nc2nc3ccc(F)c(F)c3nc2C)c(-c2c(Br)cnn2C)c1F [Example I-131]
,4.06 ^[a],Cc1nc2c(F)c(F)ccc2cc1Nc1cccc(F)c1-c1ccnn1CC(C)C [Example I-306]
4.30 ^[a],,Fc1ccc(Nc2cnc3ccccc3c2Cl)c(-c2ccnn2CCc2ccccc2)c1 [Example I-168]
2.65 ^[a],,Cc1nc2ccccc2cc1Nc1ccccc1-c1ccn(C(C)C)n1 [Example I-004]
3.33 ^[a],,Cc1ccc(Nc2nc3ccccc3nc2C)c(-c2c(C)cnn2C)c1F [Example I-193]
,3.39 ^[a],CCn1ncc(F)c1-c1c(F)ccc(F)c1Nc1cnc2ccccc2c1Cl [Example I-318]
,3.25 ^[a],CCn1nccc1-c1ccccc1Cc1cnc2c(Cl)cccc2c1 [Example I-346]
4.08 ^[a],,Fc1cccc(Nc2cnc3c(F)c(F)ccc3c2)c1-c1ccnn1CCc1ccccc1 [Example I-121]
